From the antibiotic and cytotoxicity screens of Wong et al. (2023)
Some of the results follow.

Columns and labels:
[1] = tested on: HSkMC (human skeletal muscle cells); test: cytotoxicity call (relative viability < 0.9); settings: 10 µM
[2] = tested on: HepG2; test: cytotoxicity call (relative viability < 0.9); settings: 10 µM
[3] = tested on: S. aureus RN4220; test: growth inhibition call (relative growth <= 0.2); settings: 50 µM

C[C@@H]1CN([C@H](C)CO)C(=O)c2cc(NC(=O)CCCN(C)C)ccc2O[C@@H]1CN(C)C(=O)NC1CCCCC1
cytotoxicity call [1]: inactive | cytotoxicity call [2]: inactive | growth inhibition call [3]: inactive

C[C@@H]1CN([C@H](C)CO)C(=O)c2cc(NC(=O)Nc3cccc4ccccc34)ccc2O[C@@H]1CN(C)Cc1ccc(C(=O)Nc2ccccc2N)cc1
cytotoxicity call [1]: inactive | cytotoxicity call [2]: active | growth inhibition call [3]: inactive

COc1ccc(-c2cnc3c(c2)C(=O)N([C@H](C)CO)C[C@H](C)[C@@H](CN(C)C(=O)C2CCOCC2)O3)cc1
cytotoxicity call [1]: inactive | cytotoxicity call [2]: inactive | growth inhibition call [3]: inactive

Cn1c(=O)c2cc(S(=O)(=O)NCCC(=O)NC3CCCC3)ccc2n(C)c1=O
cytotoxicity call [1]: inactive | cytotoxicity call [2]: active | growth inhibition call [3]: inactive

C=CCN1C[C@H](C(N)=O)CC1=O
cytotoxicity call [1]: inactive | cytotoxicity call [2]: inactive | growth inhibition call [3]: inactive

C[C@@H]1CN([C@H](C)CO)C(=O)c2c(c3ccccc3n2C)-c2ccccc2CO[C@H]1CN(C)C(=O)Nc1ccc2c(c1)OCO2
cytotoxicity call [1]: inactive | cytotoxicity call [2]: inactive | growth inhibition call [3]: inactive

Cc1ccc(S(=O)(=O)N(C)C[C@H]2OCCCC[C@H](C)Oc3ccc(NC(=O)c4ccccc4)cc3C(=O)N([C@@H](C)CO)C[C@@H]2C)cc1
cytotoxicity call [1]: inactive | cytotoxicity call [2]: inactive | growth inhibition call [3]: inactive

C[C@H](CO)N1C[C@H](C)[C@H](CN(C)Cc2ccccc2)Oc2c(NC(=O)Nc3cccc4ccccc34)cccc2C1=O
cytotoxicity call [1]: inactive | cytotoxicity call [2]: inactive | growth inhibition call [3]: inactive

Cc1noc(C)c1S(=O)(=O)N(C)C[C@H]1Oc2ccc(NC(=O)Cc3ccccc3)cc2CC(=O)N([C@@H](C)CO)C[C@H]1C
cytotoxicity call [1]: inactive | cytotoxicity call [2]: inactive | growth inhibition call [3]: inactive

C[C@@H]1CCCCO[C@H](CN(C)Cc2ccccc2)[C@@H](C)CN([C@H](C)CO)C(=O)c2cc(NC(=O)Nc3cccc4ccccc34)ccc2O1
cytotoxicity call [1]: inactive | cytotoxicity call [2]: inactive | growth inhibition call [3]: inactive

C[C@@H]1CN([C@H](C)CO)C(=O)c2cccc(NC(=O)Nc3cccc4ccccc34)c2O[C@@H]1CN(C)C(=O)Nc1ccccc1
cytotoxicity call [1]: inactive | cytotoxicity call [2]: inactive | growth inhibition call [3]: inactive

C[C@H](CO)N1C[C@H](C)[C@H](CN(C)S(=O)(=O)c2cn(C)cn2)Oc2ccc(NC(=O)Cn3cnnn3)cc2CC1=O
cytotoxicity call [1]: inactive | cytotoxicity call [2]: inactive | growth inhibition call [3]: inactive

COCC#Cc1ccc2c(c1)O[C@@H](CN(C)C(=O)c1ccccc1)[C@@H](C)CN([C@@H](C)CO)S2(=O)=O
cytotoxicity call [1]: inactive | cytotoxicity call [2]: inactive | growth inhibition call [3]: inactive

C=CCC[C@@H](Cc1ccc(F)cc1)C(=O)OC[C@H]1CCCN1C(=O)[C@H](CC=C)CC(=O)N(CCO)Cc1ccccc1
cytotoxicity call [1]: inactive | cytotoxicity call [2]: inactive | growth inhibition call [3]: inactive

C[C@H]1CN([C@@H](C)CO)C(=O)Cc2cc(NC(=O)c3ccncc3)ccc2O[C@H]1CN(C)S(=O)(=O)c1cn(C)cn1
cytotoxicity call [1]: inactive | cytotoxicity call [2]: inactive | growth inhibition call [3]: inactive

O=C(C[C@H]1C[C@@H]2c3cc(NC(=O)C4CCOCC4)ccc3O[C@@H]2[C@H](CO)O1)NCc1ccc2c(c1)OCO2
cytotoxicity call [1]: inactive | cytotoxicity call [2]: inactive | growth inhibition call [3]: inactive

C[C@@H]1CN([C@@H](C)CO)S(=O)(=O)c2ccc(C#Cc3cccc(F)c3)cc2O[C@@H]1CN(C)CC1CC1
cytotoxicity call [1]: inactive | cytotoxicity call [2]: inactive | growth inhibition call [3]: inactive

C[C@@H]1CN([C@H](C)CO)C(=O)c2cc(NC(=O)Nc3ccc(F)cc3)ccc2O[C@@H](C)CCCCO[C@H]1CN(C)S(=O)(=O)c1ccc(F)cc1
cytotoxicity call [1]: inactive | cytotoxicity call [2]: active | growth inhibition call [3]: inactive

O=C1OCCC/C=C\[C@H]2O[C@@]34C=CCN(Cn5nnc6ccccc65)C(=O)[C@H]3N(CCO)C(=O)[C@@H]4[C@@H]12
cytotoxicity call [1]: inactive | cytotoxicity call [2]: inactive | growth inhibition call [3]: inactive

COc1cc(O)c2c(c1)C(=O)c1cc(C)cc(O)c1C2=O
cytotoxicity call [1]: inactive | cytotoxicity call [2]: inactive | growth inhibition call [3]: inactive

C[C@H]1CN([C@@H](C)CO)C(=O)c2cccc(NC(=O)Nc3cccc4ccccc34)c2O[C@H]1CN(C)Cc1ccncc1
cytotoxicity call [1]: inactive | cytotoxicity call [2]: inactive | growth inhibition call [3]: inactive

C[C@@H]1CN([C@@H](C)CO)C(=O)c2cc(NC(=O)Cc3ccccc3)ccc2O[C@@H](C)CCCCO[C@@H]1CN(C)C(=O)Cc1ccccc1
cytotoxicity call [1]: inactive | cytotoxicity call [2]: inactive | growth inhibition call [3]: inactive

C[C@@H]1CCCCO[C@@H](CN(C)Cc2ccc3c(c2)OCO3)[C@@H](C)CN([C@@H](C)CO)C(=O)c2cc(NC(=O)Nc3ccccc3)ccc2O1
cytotoxicity call [1]: inactive | cytotoxicity call [2]: active | growth inhibition call [3]: inactive

C[C@@H]1CN([C@H](C)CO)C(=O)c2cc(C#CC3(O)CCCC3)cnc2O[C@H]1CN(C)C(=O)C1CCCCC1
cytotoxicity call [1]: inactive | cytotoxicity call [2]: inactive | growth inhibition call [3]: inactive

C[C@@H]1CN([C@H](C)CO)S(=O)(=O)c2ccc(C3=CCCCC3)cc2O[C@H]1CN(C)C(=O)C1CCOCC1
cytotoxicity call [1]: inactive | cytotoxicity call [2]: inactive | growth inhibition call [3]: inactive
